Reference: publication PMC5892938
Some of the results follow. At the low end of the ranking the order means little.

molecular target: GST-SBP-SLBP (stem-loop binding protein) (UniProt Q14493); test: targeted RNA Bind-n-Seq; conditions: RBNS binding buffer: 25 mM Tris pH 7.5, 150 mM KCl, 3 mM MgCl2, 0.1% Tween, 0.5 mg/mL BSA, 1 mM DTT; 27 nM protein, 750 pM RNA pool; temperature not stated; high values mean tight binding;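 note: DESeq read counts versus GST-SBP nonspecific binding control pulldown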

Sequence	binding signal (log2 fold change)
GGUCACGUCUCAAUCAACUCUCUAGAGGGGGGGAAAACCCCUUUGCCCUCGUAUUCAACAGCUCGCAGUCAAG	-0.0875
GGUCACGUCUCAAUCAACUCCCUAGAGGGGGGGAAAACCCCUUUACCCUCGAAAUCAACAGCUCGCAGUCAAG	-0.494
GGUCACGUCUCAAUCAACUCUAUUCCCAGGGAAAGCCCUGGUUAUCUCAACAGCUCGCAGUCAAG	0.0233
GGUCACGUCUCAAUCAACUCUUUUUCCAGGGAAAUCCCUGGCUAAUUCAACAGCUCGCAGUCAAG	0.0626
GGUCACGUCUCAAUCAACUCAUCUUCAGGAGUUUGCUCCUGCUAUUUCAACAGCUCGCAGUCAAG	-0.0773
GGUCACGUCUCAAUCAACUCUAUUCCAGGAGUUUACUCCUGCUUUUUCAACAGCUCGCAGUCAAG	0.125
GGUCACGUCUCAAUCAACUCCUAAGAGGGGGGGAAAACCCCUUUGCCCUCCGUAUCAACAGCUCGCAGUCAAG	-0.392
GGUCACGUCUCAAUCAACUCUUCAGAGGGGGGGAAAACCCCUUUACCCUCCUAAUCAACAGCUCGCAGUCAAG	0.368
GGUCACGUCUCAAUCAACUCAUUCCCAGGAGUUUCCUCCUGCUAAUUCAACAGCUCGCAGUCAAG	0.138
GGUCACGUCUCAAUCAACUCAUAAGAGGGGGGGAAAACCCCUUUACCCUCCAUAUCAACAGCUCGCAGUCAAG	-0.599
GGUCACGUCUCAAUCAACUCAUCCUCAGGAGUUUACUCCUGUAAAGUCAACAGCUCGCAGUCAAG	0.00197
GGUCACGUCUCAAUCAACUCUAUCUCCAGGGAAACCCCUGGUAAAUUCAACAGCUCGCAGUCAAG	-0.2
GGUCACGUCUCAAUCAACUCUUAAGAGGGGGGGAAAACCCCUUUGCCCUCGAUAUCAACAGCUCGCAGUCAAG	-0.0391
GGUCACGUCUCAAUCAACUCAAUUUCCAGGGAAACCCCUGGCUAUCUCAACAGCUCGCAGUCAAG	0.25
GGUCACGUCUCAAUCAACUCUAUCCCAGGAGUUUUCUCCUGUAUUCUCAACAGCUCGCAGUCAAG	0.0397
GGUCACGUCUCAAUCAACUCUUCCUCCAGGGAAAACCCUGGCAAUGUCAACAGCUCGCAGUCAAG	-0.274
GGUCACGUCUCAAUCAACUCAUUAGAGGGGGGGAAAACCCCUUUGCCCUCAUUUUCAACAGCUCGCAGUCAAG	0.018
GGUCACGUCUCAAUCAACUCAUCCUCCAGGGAAAACCCUGGCUUUUUCAACAGCUCGCAGUCAAG	-0.0594
GGUCACGUCUCAAUCAACUCAUCUUCAGGAGUUUUCUCCUGCUAAUUCAACAGCUCGCAGUCAAG	0.205

Sequence	binding signal (log2 fold change)
GGUCACGUCUCAAUCAACUCAUCAGAGGGGGGGAAAACCCCUUUACCCUCAUACUCAACAGCUCGCAGUCAAG	-0.218
GGUCACGUCUCAAUCAACUCUUCGUCCAGGGAAAGCCCUGGCAAAUUCAACAGCUCGCAGUCAAG	-0.141
GGUCACGUCUCAAUCAACUCAAUCUCCAGGGAAAGCCCUGGUAUACUCAACAGCUCGCAGUCAAG	0.189
GGUCACGUCUCAAUCAACUCUUCAGAGGGGGGGAAAACCCCUUUACCCUCCCAUUCAACAGCUCGCAGUCAAG	-0.063
GGUCACGUCUCAAUCAACUCUUUUUCAGGAGUUUCCUCCUGUUUUCUCAACAGCUCGCAGUCAAG	0.0769
GGUCACGUCUCAAUCAACUCUUCCUCAGGAGUUUUCUCCUGCAUAUUCAACAGCUCGCAGUCAAG	0.0455
GGUCACGUCUCAAUCAACUCAUCCCCCAGGGAAAACCCUGGCUUAUUCAACAGCUCGCAGUCAAG	-0.0245
GGUCACGUCUCAAUCAACUCUAGUCCCAGGGAAACCCCUGGCAAAUUCAACAGCUCGCAGUCAAG	-0.0685
GGUCACGUCUCAAUCAACUCAACUCCAGGAGUUUUCUCCUGUAUUUUCAACAGCUCGCAGUCAAG	-0.11
GGUCACGUCUCAAUCAACUCAACUUCCAGGGAAAUCCCUGGCUAAUUCAACAGCUCGCAGUCAAG	0.0407
GGUCACGUCUCAAUCAACUCUUCGCCCAGGGAAAGCCCUGGUUAUCUCAACAGCUCGCAGUCAAG	-0.326
GGUCACGUCUCAAUCAACUCAGUUUCAGGAGUUUUCUCCUGCAUAUUCAACAGCUCGCAGUCAAG	0.0714
GGUCACGUCUCAAUCAACUCUAUCUCCAGGGAAACCCCUGGUUUUUUCAACAGCUCGCAGUCAAG	0.0347
GGUCACGUCUCAAUCAACUCUUCUCCCAGGGAAAACCCUGGCAUUUUCAACAGCUCGCAGUCAAG	0.0216
GGUCACGUCUCAAUCAACUCUUCUUCCAGGGAAAUCCCUGGCAAUCUCAACAGCUCGCAGUCAAG	0.0235
GGUCACGUCUCAAUCAACUCUUCAGAGGGGGGGAAAACCCCUUUACCCUCAAUCUCAACAGCUCGCAGUCAAG	-0.217
GGUCACGUCUCAAUCAACUCAAAAGAGGGGGGGAAAACCCCUUUGCCCUCAUACUCAACAGCUCGCAGUCAAG	0.192
GGUCACGUCUCAAUCAACUCUAUUUCAGGAGUUUACUCCUGCAAUCUCAACAGCUCGCAGUCAAG	0.143
